Assay results published in the supplement of paper PMC11417369.
The other results are listed elsewhere or left out.

System: PF3D7_0420300 AP2 domain 1 (GST-tagged)
Experiment: gcPBM binding intensity (ln(normalized median fluorescence intensity)); higher = stronger DNA binding
In short: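 DNA-binding domains from P. falciparum, fused to GST and produced in E. coli, were put on an Agilent 4 × 180k double-stranded probe array for 1 h in 1× PBS holding 1% milk, 0.2 mg/ml BSA, 0.5% salmon testes DNA and 0.03% Triton X-100. Probes were primer-extended, 36 bp long and drawn from intergenic genomic regions, with negative controls included. After Alexa488 anti-GST antibody detection and a 488 nm scan, binding intensity was set as the highest Masliner-normalised natural-log median intensity across replicate spots of either probe orientation.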

Sequence	gcPBM binding intensity (ln)
ATAAATTTATCCAAGTGTACAAAGCTAACATTTTTT [XGTACX_site4399]	9.28
GTTTATAAAATAAGAAGTACTTTATGAGAACCATAT [XGTACX_site5789]	9.12
ATAAACAAGACGCAACAAAGTAGAAATTAAAAATAA [CACACA_negctrl_site345]	9.47
AAAAATGGAATTATCTGTACATATATAGTTTTTAAA [XGTACX_site5580]	9.07
TGGTACCTTACTTTTACACACTTTTTTTTTTTTTTT [CACACA_site1557]	9.59
TTTTGAGTAGCCTATTGTACGAACTTTTTAAATACA [XGTACX_site1224]	9.07
CCATTTTAAATATGCACACAGATGCACTAACACATT [CACACA_site5099]	9.46
AATATATACGCATGCGCACACACAAGTGGGAAATTT [CACACA_site1786]	9.7
CACCCATAAATATACACACGCACAACACAAAATAAA [CACACA_site2903]	9.73
ATATATATATATACATGTACAAATGTATAACAAATG [XGTACX_site145]	9.3
TTTTTTTACAACATTACACACAAATATTCTGTGTTA [CACACA_site5957]	9.65
ATATTACAACATTTTATACACACGTGATTATTAATT [CACACA_site2877]	9.63
AATCGTGTTCTGAATACACACTAATACAAATTTGTA [CACACA_site6058]	9.34
AACAAAAATAATAATCAAATAAATAAATGAAAACAT [CACACA_negctrl_site456]	9.58
AGAAAATTAAAAAGAACACACAAATATATATATAAT [CACACA_site5896]	9.81
AACATTTTAAAACAGACACACACCAAAAAAAAAAAA [CACACA_site257]	9.68
AAATGAAAATAAAGCAACAGAAATATAATGTATTAT [GTGCAC_negctrl_site508]	9.7
AGGCACGTGTTATATACACACATAATCAAATAAACT [CACACA_site7852]	9.6
TTATGTCATAAATGCACACATATATATATACATATA [CACACA_site1588]	9.38

Sequence	gcPBM binding intensity (ln)
AAAATAATAACATTGTGTACATAAAAAGAAAACCTT [XGTACX_site840]	9.56
ACATTTTATACGATAAAATGTATAAGATTATGAAGA [TGCATGCA_negctrl_site476]	9.08
TATGAATGGTTAAGTACACACATATTAATATATGTA [CACACA_site3490]	9.4
CTATCTACATAAACGTGTACCCACAAATAAATAAAT [XGTACX_site5210]	9.3
TTTTTTAAAAAAGTTTTCTGTATTTATATATATATA [CACACA_negctrl_site31]	9.07
TTAACCTTTTGATATTGTACCCATAATCTAATACAA [XGTACX_site769]	9.17
TCATATGTATAAATTAGTACATATTTAATGGATATA [XGTACX_site3298]	9.08
GATATAATGTGTTTGGTATTCTTGATAGATAGTTTT [CACACA_negctrl_site1711]	9.57
ACATACATACACCCACGTACGTACCGAAACACCACC [XGTACX_site1212]	9.51
ATGATGTCTTTATATTGTACATATATGAAGACGTTA [XGTACX_site7751]	9.04
TTTCTTTTTTTTTTTGTATATTAAATCTAAAAAGGA [TGCATGCA_negctrl_site431]	8.82
ACTTCAAAAATAAACTGTACGTAAAAAAAAAAAAAA [XGTACX_site795]	9.02
TTTAAATAAAATATTACACACTTAGAAAAATATATA [CACACA_site3663]	9.32
TTTCGTAAAATGAAATGTACTCAAAAGTAAATATAA [XGTACX_site214]	9.03
AAATTAAAATAATAATTCTACAAATTAATTTATCAT [XGTACX_negctrl_site44]	9.01
TATCAAATGTATATATGTACTTATATTTTTTTTATA [XGTACX_site1501]	9.19
AATATATTTTCCTGCAAACACACATATAAATGTGTA [CACACA_site532]	9.38
TATATTACAAAAAGTACACACATAAATAAATACATA [CACACA_site975]	9.81
ATGCTCAAAAGATATGCATGTACAAATATATGAAAT [TGCATGCA_site592]	9.1

Sequence	gcPBM binding intensity (ln)
TGATACTTATGATAAATACACACTTGAAATTAAGGA [CACACA_site1152]	9.25
TATATAGCATATTTCACACACACATAATGAATATTA [CACACA_site3546]	9.82
ATGATATACGTAAACACACAAATAAAAAAAATTTAT [CACACA_site7544]	9.25
TTTTTTAGTTTTTAGTGTACATAAATAAATAAATAA [XGTACX_site2843]	8.79
TTAAAAAGAAAGTTCACACACATATAGATGACGGAA [CACACA_site7268]	9.76
GGTTCATATATTAACACACACATACATATTATATAT [CACACA_site2937]	9.87
TGAGAGAGAAACGTAGTGCATAAAATCAAATTTAGA [GTGCAC_site9737]	9.32
AATAATCATAGTTCTACACACCTATATTGCAAAAAA [CACACA_site867]	9.41
TAATATGTATTTACAAGTACTAACAAAATATTAAAA [XGTACX_site3379]	9.12
TACAAAAATAAATGTTGTACTATTATTTATTTCGAT [XGTACX_site1048]	9.02
TTATAAAAAATTTTAGTGCATATATGATTTATATAT [GTGCAC_site9831]	8.95
TTAAAGATATACAAAAGTACTTTTTTTTTCGTCATT [XGTACX_site384]	8.98
TTCATTAAATAGAACAAAATAATAATATAACAACAA [GTGCAC_negctrl_site116]	9.5
CCATATCTTTTTTGCACACACTACAATAAAACAAAA [CACACA_site4995]	9.43
GTAATATTATAATATACACACATAGAATATAAATAT [CACACA_site6333]	9.68
AAAATACACCAACACACACACATATATATATATATT [CACACA_site4149]	10.1
TTCAAGATTTATTATACACACATATTAATATATATA [CACACA_site573]	9.41
TTATTTTTTCTTTTTTTTCTTACCACAAAAATGGAT [CACACA_negctrl_site362]	9.06
